The campaign covered roughly 280,000 compounds. About 100 (0.036%) were called active. This list was built around the results that the source calls inconclusive (neither active nor inactive); the mix of calls is not that of the screen. Calls follow the shape of the dose curve; as a rule, active = well fitted inhibition curve with a large enough effect in the signal ratio, with a control signal flat (not every such curve was filed as active); inconclusive = small, poorly fitted or top-dose-only effect, or effect the other way, or a change in a side signal; inactive = no such curve, though single readings can be large or run the other way; the % refers to the signal ratio. Where the call is inconclusive, the potency comes from a doubtful curve fit. “Side channel” marks fits to a control or component signal instead of the main read-out.
These molecules were tested against Muscleblind-like protein 1 (Homo sapiens) (UniProt Q9NR56) (assay: qHTS Assay for Inhibitors of MBNL1-poly(CUG) RNA binding). Conditions: TR-FRET MBNL1-His/biotin-(CUG)12 binding, 665/545 ratio; series mostly up to 57.5 µM.
Summary of the method: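 TR-FRET readout: Ex 340 nm, 665/545 nm emission ratio, normalized to buffer-only (basal) and MBNL1-(CUG)12 controls. Complex of MBNL1-His with Biotin-(CUG)12, compounds 92 nM–58 uM, incubated 60 min at room temperature.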
Potency is read from the fitted curve at half-maximal effect; tags tell the direction and shape of the fitted curve or compound fluorescence and quenching.

Chain of UniProt Q9NR56 (Q9NR56 whole entry, looked up): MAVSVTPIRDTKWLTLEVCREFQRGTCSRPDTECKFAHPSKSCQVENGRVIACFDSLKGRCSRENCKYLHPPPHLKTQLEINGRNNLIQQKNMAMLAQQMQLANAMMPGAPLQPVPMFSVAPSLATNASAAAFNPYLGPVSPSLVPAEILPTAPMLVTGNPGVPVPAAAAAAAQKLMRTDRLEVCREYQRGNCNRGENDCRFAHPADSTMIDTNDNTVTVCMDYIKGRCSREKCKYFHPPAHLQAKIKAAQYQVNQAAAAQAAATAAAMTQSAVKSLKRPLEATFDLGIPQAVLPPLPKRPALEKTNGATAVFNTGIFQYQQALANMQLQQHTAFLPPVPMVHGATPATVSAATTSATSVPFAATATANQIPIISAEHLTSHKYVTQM

**Q.** Which Potency does the source give for `COC(=O)c1c(N)n(Cc2ccc(OC)cc2)c2nc3ccccc3nc12` here?
**A.** inconclusive: 28.2 µM [quencher, side channel, single point]

**Q.** Which Potency does the source give for `COc1ccccc1N=Nc1ccc(N)c(C)c1` here?
**A.** inconclusive: 25.1 µM [quencher, side channel, partial curve]

**Q.** Which Potency does the source give for `CN1C(=O)C(=Cc2ccc(N3CCOCC3)o2)C(=O)N(C)C1=S` here?
**A.** inconclusive: 2 µM [quencher, side channel, full curve]

**Q.** With `CCc1nnc(NC(=O)CCc2nc(C3=CCN(C)CC3)no2)s1` as the molecule, how does the Potency read?
**A.** inconclusive: 14.1 µM [quencher, side channel, partial curve]

**Q.** With `CCCCn1c(O)c(/C=C2/C=CC=N2)c(=O)[nH]c1=O` as the molecule, how does the Potency read?
**A.** inconclusive: 17.8 µM [quencher, side channel, partial curve]

**Q.** How did the Potency turn out when `Cc1ccc(O)c(C(=O)c2cc(C(=O)NCc3ccccc3)c(=O)n(Cc3ccccc3)c2)c1` was run?
**A.** inactive

**Q.** Which Potency does the source give for `O=[N+]([O-])c1ccc(N2CCCCCC2)c2nonc12` here?
**A.** inconclusive: 7.08 µM [quencher, side channel, partial curve]

**Q.** With `COCCOC(=O)c1c(N)n(Cc2ccccc2)c2nc3ccccc3nc12` as the molecule, how does the Potency read?
**A.** inconclusive: 17.8 µM [quencher, side channel, partial curve]

**Q.** Which Potency does the source give for `COC(=O)[C@@H]1[C@@H](C(=O)OC)C2(c3ccccc3-c3ccccc32)N(c2ccc(Cl)cc2)N1C#N` here?
**A.** inconclusive: 0.158 µM [quencher, side channel, full curve, poor fit]

**Q.** `C[n+]1c(-c2ccccc2)cc(CCCCc2cc(-c3ccccc3)[n+](C)c(-c3ccccc3)c2)cc1-c1ccccc1` was tested. Which Potency did it give?
**A.** inactive

**Q.** How did the Potency turn out when `Nc1ccc(CCN2CCCC2)cc1` was run?
**A.** inactive

**Q.** How did the Potency turn out when `O=c1[nH]c(=S)[nH]c(O)c1N=Nc1ccc(-c2ccccc2)cc1[N+](=O)[O-]` was run?
**A.** inconclusive: 15.8 µM [quencher, side channel, partial curve]

**Q.** `COC(=O)Cn1cc(/C=C2\C(=O)NC(=O)N(c3ccc(OC)cc3)C2=O)c2ccccc21` was tested. Which Potency did it give?
**A.** inactive

**Q.** With `O=[N+]([O-])c1ccc(N2CCCC2)c2ccncc12` as the molecule, how does the Potency read?
**A.** inconclusive: 3.98 µM [quencher, side channel, partial curve]

**Q.** With `COc1cccc(N2C(=O)NC(=O)/C(=C\c3ccc([N+](=O)[O-])s3)C2=O)c1` as the molecule, how does the Potency read?
**A.** inconclusive: 17.8 µM [quencher, side channel, partial curve]

**Q.** With `Cc1c(C=O)c2ccccc2n1Cc1ccc([N+](=O)[O-])cc1` as the molecule, how does the Potency read?
**A.** inconclusive: 11.2 µM [quencher, side channel, partial curve]

**Q.** Which Potency does the source give for `O=C(Cc1ccccc1)Oc1ccc(N2C(=O)C3CCCCC3C2=O)cc1` (stereo unspecified) here?
**A.** inconclusive: 10 µM [fluorescent, side channel, partial curve, poor fit]

**Q.** `COc1cc(C(C)=O)ccc1OC(=O)N(C)c1ccccc1` was tested. Which Potency did it give?
**A.** inactive

**Q.** `O=C1NC(=O)N(c2cccc(Cl)c2)C(=O)/C1=C\c1ccc(Sc2nc3ccccc3[nH]2)o1` was tested. Which Potency did it give?
**A.** inactive

**Q.** For `C[C@H]1OC[C@@H](C[N+](C)(C)C)O1`, which Potency is on record?
**A.** inactive

**Q.** With `COc1ccc(C2CC(c3cccs3)=NN2c2nc(C)c(C(C)=O)s2)cc1OC` (stereo unspecified) as the molecule, how does the Potency read?
**A.** inconclusive: 25.1 µM [quencher, single point]

**Q.** How did the Potency turn out when `CN1CCCN(c2ccc([N+](=O)[O-])nc2)CC1` was run?
**A.** inconclusive: 12.6 µM [quencher, side channel, partial curve]

**Q.** How did the Potency turn out when `CCN(CC)c1ccc(N=Cc2c(O)n(CCC3=CCCCC3)c(=O)[nH]c2=O)cc1` was run?
**A.** inactive

**Q.** Which Potency does the source give for `C=C[C@@H]1C[C@@]1(C)[C@@H](NP(=O)(c1ccccc1)c1ccccc1)c1ccccc1` here?
**A.** inactive

**Q.** With `COC(=O)c1ccc(N2CCN(C)CC2)c([N+](=O)[O-])c1` as the molecule, how does the Potency read?
**A.** inconclusive: 20 µM [quencher, side channel, partial curve]

**Q.** Which Potency does the source give for `CCOc1c(Cl)cc(CNCCc2c[nH]c3ccccc23)cc1OC` here?
**A.** inconclusive: 0.501 µM [inhibitor, full curve, poor fit]

**Q.** Which Potency does the source give for `CCS(=O)(=O)C1=NN2C(=N)/C(=C\c3ccc(OC(=O)c4ccco4)cc3)C(=O)N=C2S1` here?
**A.** inconclusive: 28.2 µM [quencher, side channel, single point]

**Q.** With `COC(=O)CSc1nc2sc3c(c2c(=O)n1C1CCCCC1)CCN(C)C3` as the molecule, how does the Potency read?
**A.** inconclusive: 17.8 µM [quencher, side channel, partial curve]

**Q.** With `CN(C)c1ccc(C(=O)c2ccc(N(C)C)cc2)cc1` as the molecule, how does the Potency read?
**A.** inconclusive: 31.6 µM [quencher, single point]

**Q.** With `Cc1ccc2[nH]c(C)c(CCNC(=O)c3cc4cc([N+](=O)[O-])ccc4oc3=O)c2c1` as the molecule, how does the Potency read?
**A.** inconclusive: 2.82 µM [quencher, side channel, full curve, poor fit]

**Q.** Which Potency does the source give for `C=CCn1c(CSc2ccccc2[N+](=O)[O-])n[nH]c1=S` here?
**A.** inconclusive: 35.5 µM [quencher, side channel, single point]

**Q.** `CN(C)c1ccc(C=C2C(=O)NC(=O)NC2=O)cc1[N+](=O)[O-]` was tested. Which Potency did it give?
**A.** inconclusive: 20 µM [quencher, single point]

**Q.** For `CCOC(=O)Cn1cc(C(=O)c2ccccc2F)c2ccccc21`, which Potency is on record?
**A.** inactive

**Q.** With `c1ccc2nc3ccccc3nc2c1` as the molecule, how does the Potency read?
**A.** inconclusive: 7.08 µM [quencher, side channel, partial curve]

**Q.** Which Potency does the source give for `O=c1cc(-c2ccc(O)c(O)c2)oc2cc(O)cc(O)c12` here?
**A.** inconclusive: 17.8 µM [quencher, side channel, partial curve, poor fit]

**Q.** How did the Potency turn out when `CC(=O)c1c(COC(=O)c2cccnc2)nc2ccccc2[n+]1[O-]` was run?
**A.** inconclusive: 28.2 µM [quencher, side channel, partial curve]

**Q.** With `Clc1ccc2c(c1)C(c1ccccc1Cl)=NCc1nnc(N3CCN(CCOc4ccccc4)CC3)n1-2` as the molecule, how does the Potency read?
**A.** inactive

**Q.** `COc1ccc(CN2CCCC(C(=O)c3ccc(Cl)cc3)C2)c(O)c1` (stereo unspecified) was tested. Which Potency did it give?
**A.** inactive

**Q.** With `COc1ccc(/C=C/C(=O)NC(=S)N2C[C@H]3C[C@H](C2)c2cccc(=O)n2C3)cc1OC` as the molecule, how does the Potency read?
**A.** inconclusive: 25.1 µM [quencher, single point]

**Q.** Which Potency does the source give for `COc1cc2c(cc1OC)-c1c(OC)c(OC)cc3c1C(C2)N(C)CC3` (stereo unspecified) here?
**A.** inconclusive: 15.8 µM [quencher, side channel, partial curve]

**Q.** For `O=[N+]([O-])c1cc(S(=O)(=O)/N=C(/c2ccccc2)N2CCOCC2)ccc1Cl`, which Potency is on record?
**A.** inconclusive: 28.2 µM [quencher, side channel, partial curve]

**Q.** Which Potency does the source give for `CN1CCN(c2c(F)cc([N+](=O)[O-])c(N)c2Br)CC1` here?
**A.** inconclusive: 5.62 µM [quencher, side channel, partial curve]

**Q.** How did the Potency turn out when `O=C1NC(=O)C2(Cc3cc([N+](=O)[O-])ccc3N3CCN(C(=O)c4ccccc4)CC32)C(=O)N1` (stereo unspecified) was run?
**A.** inconclusive: 15.8 µM [quencher, side channel, partial curve]

**Q.** With `Cn1c(=O)cc(OCCCC(=O)N2CCC3(CC2)OCCO3)c2ccccc21` as the molecule, how does the Potency read?
**A.** inactive

**Q.** `CC[N+](C)(CC)CCCCOc1ccc2c(c1)C(=O)c1cc(OCCCC[N+](C)(CC)CC)ccc1-2` was tested. Which Potency did it give?
**A.** inconclusive: 12.6 µM [quencher, side channel, partial curve]

**Q.** Which Potency does the source give for `O=C(NCCc1ccccc1)c1ccc2nccnc2c1` here?
**A.** inconclusive: 15.8 µM [quencher, side channel, partial curve]

**Q.** For `OC1/C(=C/c2ccccc2F)N2CCC1CC2` (stereo unspecified), which Potency is on record?
**A.** inactive

**Q.** `Cc1nn(C)c(C)c1/C=C1/CC2C3CC=C4CC(O)CCC4(C)C3CCC2(C)C1=O` (stereo unspecified) was tested. Which Potency did it give?
**A.** inconclusive: 35.5 µM [quencher, side channel, single point]

**Q.** `CN1CCN(c2nccc3c2ncn3C)CC1` was tested. Which Potency did it give?
**A.** inactive

**Q.** With `O=C(O)c1ccc(N=Cc2c(O)[nH]c(=O)[nH]c2=O)cc1` as the molecule, how does the Potency read?
**A.** inconclusive: 35.5 µM [quencher, side channel, single point]

**Q.** `CC(C)C(=O)Nc1ccc(C(=O)NCc2cccnc2)cc1` was tested. Which Potency did it give?
**A.** inconclusive: 0.794 µM [quencher, side channel, single point]

**Q.** Which Potency does the source give for `S=C1CN=C(c2ccccc2)c2cc(Cl)ccc2N1` here?
**A.** inactive

**Q.** How did the Potency turn out when `COc1cccc(NP(=O)(Oc2ccccc2Cl)Oc2ccccc2Cl)c1` was run?
**A.** inconclusive: 0.1 µM [fluorescent, side channel, partial curve, poor fit]

**Q.** For `CN1C(=O)/C(=C\c2ccc(N3CCCCC3)o2)C(=O)NC1=S`, which Potency is on record?
**A.** inconclusive: 3.98 µM [quencher, side channel, partial curve]

**Q.** For `O=C(NNc1c(F)c(F)cc(F)c1F)c1cc2ccccc2oc1=O`, which Potency is on record?
**A.** inconclusive: 3.16 µM [quencher, side channel, single point]

**Q.** For `O=[N+]([O-])c1ccccc1CNCCc1ccc(F)cc1`, which Potency is on record?
**A.** inconclusive: 20 µM [quencher, side channel, single point]

**Q.** Which Potency does the source give for `Cc1ccc2c(c1)=C/C(=C\c1c(O)[nH]c(=O)[nH]c1=O)C(=O)N=2` here?
**A.** inconclusive: 11.2 µM [quencher, side channel, full curve]

**Q.** With `NNc1n[nH]c(=S)n1N` as the molecule, how does the Potency read?
**A.** inconclusive: 3.16 µM [quencher, full curve]

**Q.** How did the Potency turn out when `O=C1Nc2cc(C(=O)N3CCC4(CC3)OCCO4)ccc2NC1CSCc1cccc(F)c1` (stereo unspecified) was run?
**A.** inconclusive: 14.1 µM [quencher, side channel, partial curve]

**Q.** With `O=c1[nH]c(=O)n(Cc2ccco2)c(O)c1C=NCc1ccco1` as the molecule, how does the Potency read?
**A.** inactive

**Q.** `CN1C(=O)N(C)C(=O)C2(Cc3cc([N+](=O)[O-])ccc3N(C)C2)C1=O` was tested. Which Potency did it give?
**A.** inconclusive: 14.1 µM [quencher, side channel, partial curve]
